# Measurements taken from PubChem BioAssay (Tox21).
# This list was built around the results that the source calls inconclusive (neither active nor inactive); the mix of calls is not that of the screen. For some of these results: No potency is given beside an inconclusive call; the fits are too rough. The source made the active and inactive calls. Unless noted, calls follow the shape of the dose curve; as a rule, active = well fitted curve in the direction sought with a large enough effect in the repeat runs; inconclusive = weak or mixed curves; inactive = no such curve, though single readings can be large; an effect the other way counts as inactive or inconclusive.
# Assays:
# [1] = qHTS assay to identify small molecule antagonists of the estrogen related receptor (ERR) signaling pathway - cell viability counter screen (AID 1224818)
# In short: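 Fluorescence from CellTiter-Fluor, read 30 min after reagent addition at 37 C, measured viability of ERR cells exposed to compounds for 17.5 h. Cells had settled 6 h before dosing.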
# [2] = qHTS assay to identify small molecule agonists of the estrogen related receptor (ERR) signaling pathway (AID 1224820); also: potency is read from the fitted curve at half-maximal effect
# In short: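 Luminescence readout (One-Glo, 30 min RT) from NTP-supplied ERR cell line exposed to compounds for 18 h at 37 C. Cells seeded 2,000 per well and pre-incubated 6 h before pin-tool compound transfer.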
# [3] = tested on: estrogen-related receptor alpha (ERRalpha) with PGC-1alpha coactivator, human; experiment: qHTS assay to identify small molecule antagonists of the estrogen related receptor signaling pathway with the pleiotropic PPARgamma coactivator (PGC) (AID 1224821; calls by dose curve; also: nearly all actives have a fitted effect of over 50% in size; also: potency is read from the fitted curve at half-maximal effect;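 as to activity change, negative = inhibition: lower luminescence signal means antagonism of PGC/ERR signalling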)
# In short: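 PGC/ERR reporter cells; 6 h pre-incubation 37 C/5% CO2; pin-tool compound in DMSO, 18 h 37 C; One-Glo added, 30 min RT; luminescence read. qHTS antagonist mode.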
# [4] = qHTS assay for small molecules that induce genotoxicity in human embryonic kidney cells expressing luciferase-tagged ATAD5 (AID 651632); also: potency is read from the fitted curve at half-maximal effect; nearly all actives have a fitted effect of over 15% in size
# In short: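 Luminescence read-out: after 16 hr compound exposure at 37C, ATAD5-luciferase HEK293T cells received Amplite, 30 min RT, then CCD imaging. A rise in signal marks genotoxic stress.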
# [5] = qHTS assay for small molecule disruptors of the mitochondrial membrane potential (AID 720635); settings: HepG2 mitochondrial membrane potential, Mito-MPS dye ratio; series mostly up to 83.2 µM; also: potency is read from the fitted curve at half-maximal effect
# In short: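 HepG2 cells exposed to compound 1 hr at 37C, then Mito-MPS dye 30 min. Ratio read of aggregate (540/590 nm) versus monomer (490/535 nm) fluorescence.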
# [6] = molecular target: Glucocorticoid receptor (Homo sapiens) (UniProt P04150); experiment: qHTS assay to identify small molecule antagonists of the glucocorticoid receptor (GR) signaling pathway (AID 720692; active = well fitted inhibition curve with a large enough effect in the signal ratio in the repeat runs, not every such curve was filed as active; inconclusive = weak or mixed curves, or effect the other way; inactive = no such curve, though single readings can be large or run the other way; the % refers to the signal ratio; also: potency is read from the fitted curve at half-maximal effect); settings: GR-bla HeLa, beta-lactamase FRET ratio, dexamethasone-stimulated, 18 h; activity change, negative = inhibition: at 58.5 µM (top of the series) unless noted
# Chain of UniProt P04150 (P04150 whole entry, looked up): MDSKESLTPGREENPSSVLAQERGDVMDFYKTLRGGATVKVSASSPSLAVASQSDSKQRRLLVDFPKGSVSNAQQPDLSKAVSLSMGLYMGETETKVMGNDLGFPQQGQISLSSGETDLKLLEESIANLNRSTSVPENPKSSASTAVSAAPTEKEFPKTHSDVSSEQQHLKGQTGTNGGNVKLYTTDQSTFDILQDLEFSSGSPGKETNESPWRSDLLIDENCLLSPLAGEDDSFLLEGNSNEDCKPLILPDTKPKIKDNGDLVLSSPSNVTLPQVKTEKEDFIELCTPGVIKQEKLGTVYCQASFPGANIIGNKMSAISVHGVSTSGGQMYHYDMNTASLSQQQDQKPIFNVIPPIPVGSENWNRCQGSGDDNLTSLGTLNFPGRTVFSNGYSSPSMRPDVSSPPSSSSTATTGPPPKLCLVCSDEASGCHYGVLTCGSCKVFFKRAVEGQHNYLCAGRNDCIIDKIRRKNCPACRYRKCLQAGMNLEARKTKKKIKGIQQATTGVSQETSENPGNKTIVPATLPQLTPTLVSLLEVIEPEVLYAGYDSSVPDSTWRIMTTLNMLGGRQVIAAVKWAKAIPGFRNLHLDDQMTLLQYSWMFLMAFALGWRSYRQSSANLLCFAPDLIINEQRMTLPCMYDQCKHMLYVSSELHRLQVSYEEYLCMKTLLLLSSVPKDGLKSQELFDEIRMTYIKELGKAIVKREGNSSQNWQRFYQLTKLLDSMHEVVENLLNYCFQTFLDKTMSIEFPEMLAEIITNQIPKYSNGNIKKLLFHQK
# In short: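 Read-out: beta-lactamase FRET substrate fluorescence, 2 h at room temperature, in HeLa cells stably carrying a GRE-driven bla reporter. Compounds were co-incubated with 5 nM dexamethasone agonist (final) for 18 h at 37 C.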
# [7] = qHTS assay to identify small molecule antagonists of the glucocorticoid receptor (GR) signaling pathway - cell viability counter screen (AID 720693); settings: GR-bla HeLa viability, CellTiter-Glo luminescence, 18 h, with 5 nM dexamethasone present; series mostly up to 58.5 µM; also: nearly all actives have a fitted effect of over 55% in size
# [8] = qHTS assay for identifying genotoxic compounds that show differential cytotoxicity against isogenic chicken DT40 cell lines with known DNA damage response pathways - Rev3 mutant cell line (AID 743014); settings: chicken DT40 Rev3-/- viability, CellTiter-Glo, 40 h; series mostly up to 68.4 µM; also: potency is read from the fitted curve at half-maximal effect; nearly all actives have a fitted effect of over 55% in size
# [9] = qHTS assay for identifying genotoxic compounds that show differential cytotoxicity against isogenic chicken DT40 cell lines with known DNA damage response pathways - Rad54/Ku70 mutant cell line (AID 743015); settings: DT40 Rad54/Ku70 mutant viability, CellTiter-Glo, 40 h; series mostly up to 66.8 µM; also: potency is read from the fitted curve at half-maximal effect; nearly all actives have a fitted effect of over 60% in size
# [10] = molecular target: Androgen receptor (Homo sapiens) (UniProt P10275); experiment: qHTS assay to identify small molecule agonists of the androgen receptor (AR) signaling pathway (AID 743036; active = well fitted activation curve with a large enough effect in the signal ratio in the repeat runs, with a control signal flat, not every such curve was filed as active; inconclusive = weak or mixed curves, or effect the other way; inactive = no such curve, though single readings can be large or run the other way; the % refers to the signal ratio; also: potency is read from the fitted curve at half-maximal effect); settings: HEK293 AR-UAS-bla GripTite, beta-lactamase FRET ratio, 16 h; series mostly up to 62.4 µM
# Chain of UniProt P10275 (P10275 whole entry, looked up): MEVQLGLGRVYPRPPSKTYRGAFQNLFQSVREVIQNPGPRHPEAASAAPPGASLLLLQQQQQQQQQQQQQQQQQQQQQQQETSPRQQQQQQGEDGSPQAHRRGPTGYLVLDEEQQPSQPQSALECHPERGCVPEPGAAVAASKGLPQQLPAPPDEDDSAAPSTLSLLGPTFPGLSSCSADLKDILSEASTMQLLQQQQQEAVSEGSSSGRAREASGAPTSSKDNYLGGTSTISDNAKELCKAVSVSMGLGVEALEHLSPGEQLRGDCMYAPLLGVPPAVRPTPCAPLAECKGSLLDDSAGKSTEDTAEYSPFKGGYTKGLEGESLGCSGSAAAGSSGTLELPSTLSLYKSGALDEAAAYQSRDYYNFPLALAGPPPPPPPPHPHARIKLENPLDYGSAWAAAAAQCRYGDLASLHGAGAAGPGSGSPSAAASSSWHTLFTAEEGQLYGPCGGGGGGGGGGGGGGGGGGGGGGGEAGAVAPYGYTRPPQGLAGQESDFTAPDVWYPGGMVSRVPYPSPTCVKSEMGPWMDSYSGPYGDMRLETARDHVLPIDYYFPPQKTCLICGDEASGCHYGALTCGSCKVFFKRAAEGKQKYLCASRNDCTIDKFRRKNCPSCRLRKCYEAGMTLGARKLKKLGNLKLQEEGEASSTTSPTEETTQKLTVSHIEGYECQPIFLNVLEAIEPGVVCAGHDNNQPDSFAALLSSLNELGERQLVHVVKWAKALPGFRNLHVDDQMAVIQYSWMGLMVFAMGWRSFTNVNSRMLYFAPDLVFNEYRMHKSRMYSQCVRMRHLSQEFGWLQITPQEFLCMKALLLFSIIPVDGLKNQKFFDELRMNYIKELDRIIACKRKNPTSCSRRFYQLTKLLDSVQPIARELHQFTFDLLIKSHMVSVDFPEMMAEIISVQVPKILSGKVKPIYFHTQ
# In short: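 Screening used 2,000 AR-bla HEK293 cells per well, treated 16 h at 37C with test compounds in DMSO alongside positive and DMSO-only controls; beta-lactamase activity was then read by LiveBLAzer B/G FRET fluorescence after 2 h at room temperature.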
# [11] = qHTS assay to identify small molecule antagonists of the estrogen receptor alpha (ER-alpha) signaling pathway using the BG1 cell line (AID 743080; calls by dose curve;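 also: BG1 cells stimulated with 17beta-estradiol alongside compound; potency is read from the fitted curve at half-maximal effect; nearly all actives have a fitted effect of over 25% in size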); settings: BG1Luc4E2 ERE-luciferase antagonist mode, luminescence; activity change, negative = inhibition: at 70.3 µM (top of the series) unless noted
# In short: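 Seeding, 24 h rest, compound transfer from DMSO, 17beta-estradiol addition, 21.5 h incubation, CellTiter-Fluor (30 min, 37 C), then ONE-Glo (30 min, room temperature): this sequence was run on BG1-Luc-4E2 reporter cells.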
# [12] = molecular target: Aryl hydrocarbon receptor (Homo sapiens) (UniProt P35869); experiment: qHTS assay to identify small molecule that activate the aryl hydrocarbon receptor (AhR) signaling pathway (AID 743085); also: potency is read from the fitted curve at half-maximal effect; nearly all actives have a fitted effect of over 15% in size
# Chain of UniProt P35869 (P35869 whole entry, looked up): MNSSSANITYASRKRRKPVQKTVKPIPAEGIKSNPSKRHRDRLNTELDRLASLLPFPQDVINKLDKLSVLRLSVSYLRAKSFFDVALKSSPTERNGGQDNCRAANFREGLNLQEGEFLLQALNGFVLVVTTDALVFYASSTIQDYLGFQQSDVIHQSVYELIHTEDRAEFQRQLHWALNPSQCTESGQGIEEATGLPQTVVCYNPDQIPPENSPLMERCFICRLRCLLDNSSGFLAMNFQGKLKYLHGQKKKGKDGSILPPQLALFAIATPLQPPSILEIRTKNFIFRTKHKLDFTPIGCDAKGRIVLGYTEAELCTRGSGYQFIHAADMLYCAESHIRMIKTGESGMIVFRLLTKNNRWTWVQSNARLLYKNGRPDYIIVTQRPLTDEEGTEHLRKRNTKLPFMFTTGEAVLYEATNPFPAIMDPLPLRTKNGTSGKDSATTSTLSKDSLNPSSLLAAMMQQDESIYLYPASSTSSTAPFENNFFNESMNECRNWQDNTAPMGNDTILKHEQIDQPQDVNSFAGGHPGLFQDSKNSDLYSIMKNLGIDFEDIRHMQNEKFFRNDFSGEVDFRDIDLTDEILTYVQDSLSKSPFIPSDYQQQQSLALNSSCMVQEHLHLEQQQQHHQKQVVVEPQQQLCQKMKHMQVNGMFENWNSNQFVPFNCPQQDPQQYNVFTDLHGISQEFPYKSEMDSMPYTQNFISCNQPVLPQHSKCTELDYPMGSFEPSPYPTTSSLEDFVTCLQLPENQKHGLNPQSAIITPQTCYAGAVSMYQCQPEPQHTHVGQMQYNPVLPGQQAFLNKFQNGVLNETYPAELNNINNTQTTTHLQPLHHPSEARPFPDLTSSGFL
# In short: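 A multiplexed format paired cell viability (CellTiter-Fluor fluorescence) with AhR-dependent luciferase output (ONE-Glo luminescence) in the same wells of HepG2 DRE-luc cells after 24 h compound exposure at 37C.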
# [13] = qHTS assay to identify small molecule antagonists of the estrogen related receptor (ERR) signaling pathway (AID 1224819; also: nearly all actives have a fitted effect of over 50% in size; also: potency is read from the fitted curve at half-maximal effect;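 as to activity change, negative = inhibition: luminescence from an ERR-driven luciferase reporter measured with One-Glo reagent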)
# In short: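 Luminescence readout (One-Glo, 30 min, RT) of ERR cell line after 18 h compound exposure at 37 C; cells seeded 2,000/well, pre-incubated 6 h, compounds pinned from DMSO stocks.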
# [14] = qHTS assay to identify small molecule antagonists of the estrogen related receptor signaling pathway with the pleiotropic PPARgamma coactivator (PGC) cell viability counter screen (AID 1224822; also: potency is read from the fitted curve at half-maximal effect)
# In short: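 Fluorescence read-out of CellTiter-Fluor after 30 min at 37 C; PGC/ERR cells, 2,000 per well, had been exposed to DMSO-dissolved compounds for 17.5 h following a 6 h pre-incubation.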
# Tags tell the direction and shape of the fitted curve or compound fluorescence and quenching.
structure (smiles),measurement,setting,value
N[C@H](C(=O)O)[C@H](Cc1ccccc1)C(=O)O,Potency,[1],inactive
same,Potency,[2],"inconclusive [activator, partial curve, poor fit]"
same,Potency,[3],inactive
COc1ccc(/C=C/C(=O)Nc2ccccc2C(=O)O)cc1OC,Potency,[4],active: 1.19 µM
same,Potency,[5],"inconclusive [rising, partial curve]"
same,Potency,[6],"inconclusive [activator, single point]"
same,Potency,[7],inactive
same,Potency,[8],inconclusive [cytotoxic]
same,Potency,[9],inconclusive [cytotoxic]
same,Potency,[10],inconclusive [full curve]
same,Potency,[11],active: 8.41 µM
same,Potency,[12],active: 3.35 µM
C=CCN1CCc2c(cc(O)c(O)c2Br)[C@@H](c2ccccc2)C1,Potency,[13],inconclusive [inhibitor]
same,Potency,[3],"inconclusive [inhibitor, single point]"
CCOC(=O)C1=C(C)NC(C)=C(C(=O)OCC)C1c1c(F)c(F)c(F)c(F)c1F,Potency,[13],active: 19.6 µM
same,Potency,[3],active: 25.6 µM
same,Potency,[14],inconclusive [cytotoxic]
COC(=O)c1c(C)[nH]c(C)c1C(=O)c1ccccc1Cc1ccccc1,Potency,[13],inconclusive [inhibitor]
same,Potency,[3],inactive
same,Potency,[14],inactive
O=C(c1cc(O)c(O)c([N+](=O)[O-])c1)c1ccccc1F,Potency,[13],active: 25.6 µM
same,Potency,[3],active: 22.8 µM
same,Potency,[14],"inconclusive [cytotoxic, partial curve, poor fit]"
NS(=O)(=O)C#Cc1ccccc1,Potency,[13],"inconclusive [inhibitor, single point]"
same,Potency,[3],inconclusive [inhibitor]
same,Potency,[14],"inconclusive [cytotoxic, single point]"
S=C(S)N1CCCC1,Potency,[13],inconclusive [inhibitor]
same,Potency,[3],active: 3.22 µM
same,Potency,[14],active: 0.287 µM
Cc1ccc(S(=O)(=O)N[C@@H](Cc2ccccc2)C(=O)CCl)cc1,Potency,[13],inactive
same,Potency,[3],inconclusive [inhibitor]
same,Potency,[14],active: 26.6 µM
Clc1ccc(N2CCN(Cc3cc4ccccn4n3)CC2)cc1,Potency,[13],inconclusive [inhibitor]
same,Potency,[3],"inconclusive [inhibitor, single point]"
same,Potency,[14],"inconclusive [cytotoxic, partial curve, poor fit]"
CCCCCCCC/C=C\CCCCCCCC(=O)NCCc1ccc(O)c(O)c1,Potency,[13],inconclusive [inhibitor]
same,Potency,[3],inactive
same,Potency,[14],"inconclusive [cytotoxic, partial curve, poor fit]"
CSc1ccccc1N1CCN(CCCCCC(=O)NC2CCCc3ccccc32)CC1 (configuration not stated),Potency,[13],active: 16.2 µM
same,Potency,[3],"inconclusive [inhibitor, single point]"
same,Potency,[14],inconclusive [cytotoxic]
CO[C@H]1O[C@@H]2O[C@]3(C)CC[C@@H]4[C@@H](C)CC[C@H]([C@H]1C)[C@]24OO3,Potency,[13],active: 0.531 µM
same,Potency,[3],inconclusive [inhibitor]
same,Potency,[14],inactive
O=C(Nc1ccc2c(c1)CCN(Cc1ncn[nH]1)C2)c1ccccc1-c1ccc(C(F)(F)F)cc1,Potency,[13],inconclusive [inhibitor]
same,Potency,[3],"inconclusive [inhibitor, partial curve]"
CCOC(=O)N1CCN(/[N+]([O-])=N/Oc2ccc([N+](=O)[O-])cc2[N+](=O)[O-])CC1,Potency,[13],inconclusive [inhibitor]
same,Potency,[3],inconclusive [inhibitor]
same,Potency,[14],active: 13.9 µM
COc1cc(OC)c(/C=C2/C(=O)Nc3ccccc32)c(OC)c1,Potency,[13],active: 11 µM
same,Potency,[3],inconclusive [inhibitor]
same,Potency,[14],inconclusive [cytotoxic]
